# The campaign covered roughly 150,000 compounds. About 540 (0.36%) showed an effect of 50% or more. The list shows a part of the results.
# System: Plasmodium falciparum
# Assay: Primary screen in NF54 nanoGlo assay, in single point, at 2uM, 72h; a lower Z score goes with more inhibition
# Type: functional, Erythrocyte
# Details: timepoint 72 hour
SMILES,% Inhibition [%],Z score
COCc1csc(Nc2ccc(OC)nc2)n1,3,-0.24
CN1CCN(S(=O)(=O)N2CCN(Cc3cccn3C)CC2)CC1,7,-0.7
COc1ccc(/C=C/c2nc(-c3ccc4c(c3)ncn4CCC(=O)N3CCOCC3)no2)cc1,-5,0.62
CC(CC(=O)N[C@H](C)C(=O)O)c1cccc(C(F)(F)F)c1 (stereo partly specified),-21,2.15
CCc1nc(NC(=O)NCc2ncn(C)n2)sc1C,-7,1.33
Cc1nc(N2CCC(C(=O)NCCc3cnn(-c4ccccc4)c3)CC2)nc2ccc(C(C)C)cc12,-2,0.32
COC[C@H](C)NS(=O)(=O)c1ccc(F)c(Br)c1,-1,0.15
Cc1ncc(S(C)(=O)=O)c(N(C)Cc2cc(-c3cccs3)n[nH]2)n1,-24,3.68
CC(C)(C)c1ccc(C(=O)N[C@H]2CCCC[C@@H]2NC(=O)c2ccc(C(C)(C)C)cc2)cc1,48,-6.19
CC1(C)Cc2c(cnn2-c2cccc(F)c2)[C@@H](NCc2cccnc2)C1,-2,0.26
N#Cc1cccnc1NCCCc1ccccc1,20,-2.51
CN(C[C@H]1CCCCO1)C(=O)NC(C)(C)c1cccc2ccccc12,-9,1.5
Cc1nc(-c2oc(C)nc2C)n(-c2ccc3c(c2)OCO3)n1,-9,0.85
Cc1csc(C(=O)NCCc2nc(-c3cccs3)c[nH]2)c1,-2,0.28
Cc1nc(CNC(=O)c2cnc(Cc3c(Cl)cccc3Cl)nc2O)cs1,-1,0.15
CNc1nc(C(=O)N2CCNC[C@H]2C(=O)N2CCCC2)cs1,-5,0.86
Cc1nnc2n1CCN(c1ccccc1)C2=O,-11,1.36
CN(CC(=O)N(C)[C@H]1CCN(CC(F)(F)F)C1=O)c1ccccc1,-13,1.91
CC1CCC2(CC1)NC(=O)N(Cc1nnc(-c3ccccc3)o1)C2=O (stereo unspecified),-2,0.16
CC(C)Cc1ncc2c(n1)CN(c1ncnc3[nH]cnc13)C2,2,-0.3
Cc1nnnn1CCC(=O)NC(C)(C)CC(C)C,-20,2.67
C[C@@H](NCc1cccn1Cc1ccccc1C#N)c1cccc(O)c1,-9,0.84
Cc1nc(N2CCOCC2)ccc1NC(=O)[C@@H](N)C(F)(F)F,2,-0.25
C[C@](NC(=O)c1cc2c(s1)CCOC2)(C(=O)O)c1ccc(F)cc1,5,-0.76
C=CCN1C[C@@H](C(=O)NCc2cccnc2Oc2ccccc2)CC1=O,8,-1.17
CCCN1CCC(N2CCN(c3nc(C)nc(C)c3C)CC2)CC1,-1,0.07
C[C@]1(CNc2cc(C(=O)N3CCCCC3)ccn2)CCCO1,-20,1.8

SMILES,% Inhibition [%],Z score
C[C@H](NS(=O)(=O)Cc1ccon1)c1c(F)cccc1Cl,4,-0.61
O=C(Nc1cccc(C2OC(=O)N(Cc3cccc(Cl)c3)C2C(=O)NCCc2ccccn2)c1)c1ccccc1F (stereo unspecified),-7,0.87
COc1ccc(CN2CC(=O)Nc3ccccc32)cc1F,-5,0.88
O=C(NC1CC1)[C@@H]1CNCCN1C(=O)CCn1cc(Cl)cn1,-10,1.58
CN(C)c1nc(N2CCCCC2)nc2c1CN(C(=O)c1ccc(F)cc1F)CC2,-16,1.78
CCc1cnccc1C(=O)NCc1cccc(C(=O)N2CCCC2)c1,-1,0.11
CC(C)(CN1CCC[C@H]1c1nc(-c2ccncc2)no1)N1CCOCC1,-9,1.88
Cc1[nH]c2c(C)ccc(C)c2c1CC(=O)NCCc1c[nH]cn1,5,-0.91
Cc1ccc(C(=O)NCC2(C(=O)O)CCCCC2)o1,-5,0.66
CC1CCCC(C)N1C(=O)CN1C(=O)CN(c2ccccc2)C1=O (stereo unspecified),-2,0.28
CNc1snc(C)c1C(=O)N1CCc2cc(OC)c(OC)cc2C1,-12,1.09
CCN1CCN(CC(=O)N2N=C(c3ccc(C)c(C)c3)C[C@H]2c2cccn2C)CC1,39,-1.21
COc1ccc(CN2CCc3c(c(C(=O)N(C)Cc4cscn4)nn3CC3CC3)C2)cc1,-6,0.7
CC1Oc2ccc(NC(C)c3ncc(-c4ccccc4)o3)cc2NC1=O (stereo unspecified),-1,0.14
Cc1ccc([C@H]2CN(C(=O)c3sccc3Cl)C[C@@H]2N(C)C)cc1,-12,1.66
O=C([C@@H](O)Cc1c(F)cccc1Cl)N1CCCc2occc2C1,3,-0.46
CCNc1ncc(CN2CCC3(CC2)C[C@H](c2ccccc2)CN(C)C3)cn1,2,-0.36
C[C@H](NC(=O)c1n[nH]c2ccccc12)C1(S(C)(=O)=O)CC1,-43,5
CN1C[C@@H](c2ccccc2)CC2(CCN(Cc3noc(C4CC4)n3)CC2)C1,6,-1.13
CCn1cnnc1CNC(=O)Nc1cc(-c2ccccc2)ns1,-11,1.14
CC1(C)CN(S(=O)(=O)C2COC2)[C@H]2COC[C@H]21,16,-1.98
C=CC[C@]1(C(=O)O)CCCN(Cc2cnc(NC(C)C)nc2)C1,-6,1.07
CCn1cc(C(=O)N(C[C@H]2COc3ccccc3O2)C(C)C)c(C)n1,-20,2.52
Cc1ccc(C(=O)NCc2ccc(-c3nc4ccccc4s3)cc2)cc1,38,-5.09
CCOC(=O)c1cc(S(=O)(=O)NCCNS(=O)(=O)CC)c(F)cc1Cl,-5,0.6
O=C1NCCCOc2cccc(c2)[C@H]2c3ccc(cc3CCN2C(=O)CCN2CCOCC2)Oc2ccc(O)c1c2,39,-8.79

# Source: ChEMBL document CHEMBL4888484, “Replenishing the malaria drug discovery pipeline: Screening and hit evaluation of the MMV Hit Generation Library 1 (HGL1) against asexual blood stage Plasmodium falciparum ,using a nano luciferase reporter read-out” (2022)
